The chains are these.
B1: CPEB3 Ribozyme (parent)
chain: UAACAGGGGGCCACAGCAGAAGCGUUCACGUCGCAGCCCCUGUCAGAUUCUGGUGAAUCUGCGAAUUCUGCUGUAUAUCUC

Read counts are not given, so values of variants with three or more changes are uncertain.

In this data set the parent is B1. Briefly: self-cleavage, relative activity (ratio to wild type); higher = more cleavage; in vitro, sequencing. An outline of the steps:
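Barcoded CPEB3 ribozyme mutants, produced by rounds of error-prone PCR, self-cleaved while being transcribed with T7 RNA polymerase for 5 hours at 37°C and during a subsequent 15 min DNase I step before EDTA was added. Sequencing of template-switched cDNA on Illumina gave cleaved and total reads, and DNA sequencing assigned barcodes to variants. Each variant's relative activity is its cleaved/total read fraction divided by the unmutated ribozyme's fraction, averaged across three batches. A variant needed a minimum of 5 reads.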
Consider UAACAGGGGGCCACAGCAGAAGCGUUCACGUCGCAGCCCCUGUCAGAUCCUGGUGAAUCUGCGAAUUCUGCUGAAUACCUC, for which the self-cleavage was found to be 0.65. As to UAACAGGGGGCCACAGCAGAAGCGUUCACGUCGCAGCCCCUGUCAGAUCCUGGUGAAUCUGCGAAUCCUGCUGUUUAUCUC, the self-cleavage is 0.16. On to UAACAGGGGGCCACAGCAGAAGCGUUCACGUCGCAGCCCCUGUCAGAUUUUGGUUAAUCUGCGAAUUCUGCUCUAUGUCUC, for which the self-cleavage was 1.32. Regarding UAACAGGGGGCCACAGCAGAAGCGUUCACGUCGCAGCCCCUGUCAGAUUAUGGUGAAUCUACGAAUUCCGCUGUAUAUCUC, the self-cleavage amounted to 0.38.

As to UAACAGGGGGCCACAGCAGAAGCGUUCACGUCGCAGCCCCUGUCAGAUUCAGGUGGAUCUGGGAAUUCUGCUGUAUAUCUC, the self-cleavage worked out at 0.68. The value for UAACAGGGGGCCACAGCAGAAGCGUUCACGUCGCAGCCCCUGUCAGAUUACGGUGAAUCUGCGAAUUCUGCUGUAUAUCAC was 0.99; that for UAACAGGGGGCCACAGCAGAAGCGUUCACGUCGCAGCCCCUGUCAGAUGCUGGUGUAUCUGCGAAUUCAGCCUUAUAUCUC was 0.31. The value for UAACAGGGGGCCACAGCAGAAGCGUUCACGUCGCAGCCCCUGUCAGAUCCUGGUGAAUCUGCGAAUUCUGCUGUAUAUCAU was 0.52.

On to UAACAGGGGGCCACAGCAGAAGCGUUCACGUCGCAGCCCCUGUCAGAUUUUGGUGAGUCCGCGAAUUCUGCUGUACAUCUC, for which the self-cleavage is 0.25. The value for UAACAGGGGGCCACAGCAGAAGCGUUCACGUCGCAGCCCCUGUCAGAUCCUGGUGAAUCUGCGAAUUCUGCUGUACAUUUC was 0.49; that for UAACAGGGGGCCACAGCAGAAGCGUUCACGUCGCAGCCCCUGUCAGAUUAUGGUGAAUCUGCGAAUUCUGCUGUAUAACAC was 1.12; that for UAACAGGGGGCCACAGCAGAAGCGUUCACGUCGCAGCCCCUGUCAGAUCCUGGUGAAUCUGCGAAUUCAGCUGUGUAUCUC was 0.34. On to UAACAGGGGGCCACAGCAGAAGCGUUCACGUCGCAGCCCCUGUCAGAUCCUGGUGAAUCUGCGAAUUCUGCUGUAAAUCAC, for which the self-cleavage turned out to be 0.23.

Consider UAACAGGGGGCCACAGCAGAAGCGUUCACGUCGCAGCCCCUGUCAGAUUCAGGUGGAUCUGCGAAUUCUGCUGUGUAUCUC, for which the self-cleavage turned out to be 0.32. For the variant UAACAGGGGGCCACAGCAGAAGCGUUCACGUCGCAGCCCCUGUCAGAUUAUGGUGGGUCUGCGAAUUCUGCUGUAUAUCUC, the self-cleavage worked out at 0.17. For UAACAGGGGGCCACAGCAGAAGCGUUCACGUCGCAGCCCCUGUCAGAUCCUGGUGAAUCUGCGAAUUCUGCCGUAUAUCCC, the self-cleavage was found to be 0.61. The value for UAACAGGGGGCCACAGCAGAAGCGUUCACGUCGCAGCCCCUGUCAGAUGCAGGUAAAUCAGCGAAUUCUGCUGAAUAUCUC was 0.1; that for UAACAGGGGGCCACAGCAGAAGCGUUCACGUCGCAGCCCCUGUCAGAUUGUGUUGGAUCUGCGAAUUCUGCUGUGUAUCUC was 0.57; that for UAACAGGGGGCCACAGCAGAAGCGUUCACGUCGCAGCCCCUGUCAGAUUUUGGUGAAUCCGCGAGUUCUGCUGUAUAUCUC was 0.17. As for UAACAGGGGGCCACAGCAGAAGCGUUCACGUCGCAGCCCCUGUCAGAUGCUAGUGAAUCUGCGAAUUCUGCUGUAUAUUUC, the figure is 0.85. Consider UAACAGGGGGCCACAGCAGAAGCGUUCACGUCGCAGCCCCUGUCAGAUUCAGGUGGAUCUGCGAAUUCUGCUGAAUAUCUC, for which the self-cleavage is 1.03. For UAACAGGGGGCCACAGCAGAAGCGUUCACGUCGCAGCCCCUGUCAGAUCCUGGUGAAUCUGCGAAUUCUGCCGUACAUCUC, the self-cleavage was 0.4. As for UAACAGGGGGCCACAGCAGAAGCGUUCACGUCGCAGCCCCUGUCAGAUUAUGGCGGAUCCGCGAAUUCUGCUGUAUAUCUC, the figure is 0.15; as for UAACAGGGGGCCACAGCAGAAGCGUUCACGUCGCAGCCCCUGUCAGAUUUUGGUGAAUCUGCAAUUUCUGCUGUAUAUCUC, 0.47; as for UAACAGGGGGCCACAGCAGAAGCGUUCACGUCGCAGCCCCUGUCAGAUGGCGGUGGAUCUGCGAAUUCUGCUGUAUAUCUC, 0.19. Regarding UAACAGGGGGCCACAGCAGAAGCGUUCACGUCGCAGCCCCUGUCAGAUUCAGGUGGAUCUGCGAAUUCUGCUGUAUACCUC, the self-cleavage turned out to be 0.78. On to UAACAGGGGGCCACAGCAGAAGCGUUCACGUCGCAGCCCCUGUCAGAUCCUGGUGAAUCUGCGAAUUCAGCUGUAUAUCUA, for which the self-cleavage was 0.24. Regarding UAACAGGGGGCCACAGCAGAAGCGUUCACGUCGCAGCCCCUGUCAGAUUUUGGUGAAACUGCGAAUUCUGAUGUACAUCUC, the self-cleavage is 0.21.

For UAACAGGGGGCCACAGCAGAAGCGUUCACGUCGCAGCCCCUGUCAGAUUAUGGUGAAUCUGCGAACUCUGCUGUGUAUCUC, the self-cleavage was determined as 0.39. Turning to UAACAGGGGGCCACAGCAGAAGCGUUCACGUCGCAGCCCCUGUCAGAUUUAGGUGAAUCUGCGAAUUCUGCCGUAUGUCUC, the self-cleavage stood at 1.28. Take UAACAGGGGGCCACAGCAGAAGCGUUCACGUCGCAGCCCCUGUCAGAUUACCGCGAAUCUGCGAAUUCUGCUGUAUAUCUU: the self-cleavage turned out to be 1.2. Consider UAACAGGGGGCCACAGCAGAAGCGUUCACGUCGCAGCCCCUGUCAGAUCCUGGUGAAUCUGCGAAUCCUGCUGUAUUUCUC, for which the self-cleavage amounted to 0.15. With UAACAGGGGGCCACAGCAGAAGCGUUCACGUCGCAGCCCCUGUCAGAUUUUGGUUAAUCUGCGAAUUCUGCUGUAUACCAC, the self-cleavage is 1.16. Turning to UAACAGGGGGCCACAGCAGAAGCGUUCACGUCGCAGCCCCUGUCAGAUUUUGGUGGAUCUGCGAAUUCAGCUGUAUAUCUC, the self-cleavage is 0.2.

Source of the values: the RNAGym collection of RNA variant scans (doi:10.1093/nar/gkz1192).
